Source: the supplement of paper PMC3334620
The full ranking holds about 33,000 sequences; the median of “E-score (-0.5 to 0.5)” is about -0.012, and the highest 2% start at about 0.27. The list shows a part of the results.

target: T1, Vhr1 (UniProt P40522); test: PBM E-score (8-mer binding enrichment) (E-score (-0.5 to 0.5)); higher = stronger / more preferred TF binding; most listed sequences are background and not binding sites; details: protein concentration: 200 nM; construct: GST-full length
T1 sequence: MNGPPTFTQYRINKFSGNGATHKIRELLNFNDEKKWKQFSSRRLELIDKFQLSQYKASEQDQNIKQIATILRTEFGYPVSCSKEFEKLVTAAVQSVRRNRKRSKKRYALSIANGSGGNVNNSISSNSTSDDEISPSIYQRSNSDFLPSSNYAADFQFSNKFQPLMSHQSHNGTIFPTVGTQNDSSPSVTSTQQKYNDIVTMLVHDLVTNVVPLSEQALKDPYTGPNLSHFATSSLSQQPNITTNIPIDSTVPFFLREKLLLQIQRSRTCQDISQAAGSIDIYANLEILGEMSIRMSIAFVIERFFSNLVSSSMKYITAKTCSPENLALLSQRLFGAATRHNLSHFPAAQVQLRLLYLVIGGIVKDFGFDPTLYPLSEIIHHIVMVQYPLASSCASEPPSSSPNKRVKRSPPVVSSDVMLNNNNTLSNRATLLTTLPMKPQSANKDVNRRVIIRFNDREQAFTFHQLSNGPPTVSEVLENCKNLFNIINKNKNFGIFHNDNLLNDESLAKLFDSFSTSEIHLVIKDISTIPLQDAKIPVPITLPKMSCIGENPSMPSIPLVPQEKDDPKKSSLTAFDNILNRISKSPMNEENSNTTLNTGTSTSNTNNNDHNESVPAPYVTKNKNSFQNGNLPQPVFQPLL
How it was run: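 E-scores (a modified Wilcoxon-Mann-Whitney statistic) were assigned by the Universal PBM Analysis Suite to every ungapped eight-base word pooled with its reverse complement. The input came from universal all-10-mer Agilent arrays made double-stranded by primer extension and probed with GST-tagged yeast transcription factors at about 100-200 nM. Fluorescent anti-GST detected bound protein, and masliner normalised the scans.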

Row | Sequence | PBM E-score
1 | TAAAAAGA | -0.167
2 | ACGTGCGC | -0.0561
3 | CAACGCCA | -0.137
4 | TTCCCAAA | -0.0171
5 | CATGCTGA | 0.275
6 | CCCGTGCA | -0.119
7 | CCTCAGAG | -0.032
8 | AGCCTTAG | -0.25
9 | AGGTGTGC | 0.163
10 | ACATTATG | 0.146
11 | GATTGAAA | -0.135
12 | CCCAAAAG | -0.22
13 | AAGGCTGG | -0.27
14 | CTCACGAC | 0.0741
15 | AGTGGAGA | -0.0499
16 | ATAGTGGC | 0.0241
17 | ATAGGGGG | -0.221
18 | ACGACAGT | -0.125
19 | AATACTCA | 0.15
20 | TACGCGCA | 0.0598
21 | AGTCTGGC | 0.061
22 | CGAACATC | 0.0495

Row | Sequence | PBM E-score
23 | GTCCCAGA | -0.169
24 | TCTCGAGA | -0.0788
25 | AGGTCTAT | 0.0337
26 | AGATCAAT | 0.0633
27 | GCTTATAA | -0.175
28 | ACCGCAGA | -0.143
29 | ACATGTTA | 0.0982
30 | CTAGTATC | 0.163
31 | AACATACT | 0.137
32 | TAACACCA | 0.203
33 | CATAAGCA | -0.191
34 | CTATATGC | 0.149
35 | CGACGCTA | -0.0453
36 | AGCCGAGG | 0.0354
37 | AATTTGAA | -0.224
38 | GATCTAGC | 0.0633
39 | CCGATAAG | -0.229
40 | GAAACCCA | 0.212
41 | CTTAACAA | -0.202
42 | AGTCCCGG | -0.116
43 | AAAGCTCA | -0.175
44 | AGACAATC | 0.0276

Row | Sequence | PBM E-score
45 | ACAGATCG | -0.0921
46 | CTGCACGC | -0.0919
47 | AAGCCTAG | -0.178
48 | TGAGACCA | -0.0249
49 | ATCTGTTG | -0.0541
50 | AGCTGCGG | -0.115
51 | GCGCTATA | -0.16
52 | CACGTTAA | -0.199
53 | CCCGCGTA | -0.0687
54 | CTCGGTAC | -0.019
55 | TACCGGAA | -0.0783
56 | CCCGACAA | 0.171
57 | CTAGGACC | -0.201
58 | AGTAGAGA | -0.0214
59 | GAGCGGGC | -0.14
60 | AGGATGAA | -0.0977
61 | ATGGGCAC | 0.182
62 | GCGCTCAC | 0.0509
63 | ACAATGGG | 0.0286
64 | AGTATAAA | 0.12
65 | CGTCTGTA | -0.0348
66 | CATTTGAC | -0.0227

Row | Sequence | PBM E-score
67 | CCGACGGA | -0.0154
68 | GTAGGACA | -0.0445
69 | CTTGAGCA | -0.0946
70 | ACGGCAAT | 0.0757
71 | GCGACTCA | 0.477
72 | GGAACAAA | 0.0761
73 | GAAAATTA | -0.106
74 | CAGGCTCG | 0.0554
75 | TCACGTGA | -0.00172
76 | GTCCCAAA | -0.0966
77 | CTAACTAC | 0.0663
78 | CGTAGGAC | -0.0595
79 | GACACAAA | 0.119
80 | CCTTTCTA | -0.255
81 | ACAAGAAA | -0.0651
82 | ACCAGGAC | 0.0435
83 | AGGCGAGA | -0.184
84 | AGAATGAG | 0.094
85 | CCACGTCG | 0.0204
86 | AGAATCAC | 0.228
